# Measured values published in paper PMC2680334, “Polo-Like Kinase 1 Directs Assembly of the HsCyk-4 RhoGAP/Ect2 RhoGEF Complex to Initiate Cleavage Furrow Formation” (PLoS Biology, 2009).
# The chains behind the UniProt entries cited, without tags or fusion partners. Where a name states a change or a piece, a line headed by the entry shows the natural chain unless it says otherwise. A line that says so, or that is headed by a name, gives the form on record, which may keep a tag or linker.
# microtubule-associated protein Prc1, endogenous (O43663-4, form named): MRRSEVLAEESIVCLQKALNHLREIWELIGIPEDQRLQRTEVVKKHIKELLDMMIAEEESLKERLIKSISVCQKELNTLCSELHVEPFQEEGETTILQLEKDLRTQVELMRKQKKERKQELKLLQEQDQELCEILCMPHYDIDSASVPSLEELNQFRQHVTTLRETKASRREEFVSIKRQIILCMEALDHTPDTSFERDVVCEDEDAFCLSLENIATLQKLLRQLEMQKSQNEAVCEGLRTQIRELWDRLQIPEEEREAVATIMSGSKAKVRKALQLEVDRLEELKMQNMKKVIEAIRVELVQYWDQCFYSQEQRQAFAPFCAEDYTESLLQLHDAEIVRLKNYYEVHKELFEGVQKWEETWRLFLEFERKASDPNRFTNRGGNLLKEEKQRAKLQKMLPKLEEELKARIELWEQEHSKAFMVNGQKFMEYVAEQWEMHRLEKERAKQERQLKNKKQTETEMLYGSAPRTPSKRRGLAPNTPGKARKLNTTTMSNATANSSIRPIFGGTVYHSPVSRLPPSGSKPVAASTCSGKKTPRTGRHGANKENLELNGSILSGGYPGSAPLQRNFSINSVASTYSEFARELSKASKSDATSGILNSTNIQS
# Myc-Prc1-ST601/2AA (O43663-4, form named): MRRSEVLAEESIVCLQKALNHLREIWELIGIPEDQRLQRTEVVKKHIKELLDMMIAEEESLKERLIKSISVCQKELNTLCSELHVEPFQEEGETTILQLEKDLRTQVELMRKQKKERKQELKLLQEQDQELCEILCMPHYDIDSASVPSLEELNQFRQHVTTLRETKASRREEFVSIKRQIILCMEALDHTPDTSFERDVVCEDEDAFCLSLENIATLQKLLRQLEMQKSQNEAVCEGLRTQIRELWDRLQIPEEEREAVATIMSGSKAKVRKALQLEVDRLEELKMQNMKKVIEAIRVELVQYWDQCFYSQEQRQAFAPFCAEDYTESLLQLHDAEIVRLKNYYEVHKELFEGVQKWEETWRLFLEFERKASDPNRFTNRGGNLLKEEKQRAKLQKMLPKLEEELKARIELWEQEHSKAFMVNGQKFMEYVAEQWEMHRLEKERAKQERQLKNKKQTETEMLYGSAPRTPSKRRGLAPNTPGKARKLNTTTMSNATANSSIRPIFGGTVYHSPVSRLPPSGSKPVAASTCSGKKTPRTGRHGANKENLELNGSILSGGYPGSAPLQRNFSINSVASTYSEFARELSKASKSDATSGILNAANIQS
# Residue numbers refer to the chain shown, from its start. Results are given in words; binding and its absence hold for the method and conditions named. For some of these results: Binding seen in cells or lysates may run through a third protein. Some entries that bind do so weakly or less than the wild type. For some of these results: Sequences can lack the tags named with a protein.
# T1: chitin-binding domain (CBD)–Ect2-BRCT (1–421), immobilised (UniProt Q9H8V3)
# T1 sequence: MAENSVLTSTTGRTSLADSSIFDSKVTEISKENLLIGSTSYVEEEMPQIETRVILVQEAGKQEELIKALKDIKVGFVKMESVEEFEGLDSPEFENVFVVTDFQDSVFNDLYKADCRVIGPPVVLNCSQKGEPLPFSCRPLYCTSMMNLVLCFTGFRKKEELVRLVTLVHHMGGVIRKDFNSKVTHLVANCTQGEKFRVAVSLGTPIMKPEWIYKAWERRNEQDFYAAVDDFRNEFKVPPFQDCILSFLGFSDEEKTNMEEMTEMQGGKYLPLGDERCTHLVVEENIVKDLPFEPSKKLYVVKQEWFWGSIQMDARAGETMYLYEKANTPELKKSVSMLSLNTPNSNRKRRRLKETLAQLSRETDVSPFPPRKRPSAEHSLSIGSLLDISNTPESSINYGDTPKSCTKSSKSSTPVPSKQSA
# T2: Ect2-BRCT, yeast two-hybrid fusion (UniProt Q9H8V3)
# T2 sequence: T1 sequence
# B1: HsCyk-4/MgcRacGAP, endogenous (protein, UniProt Q9H0H5 1-632)
# chain: MDTMMLNVRNLFEQLVRRVEILSEGNEVQFIQLAKDFEDFRKKWQRTDHELGKYKDLLMKAETERSALDVKLKHARNQVDVEIKRRQRAEADCEKLERQIQLIREMLMCDTSGSIQLSEEQKSALAFLNRGQPSSSNAGNKRLSTIDESGSILSDISFDKTDESLDWDSSLVKTFKLKKREKRRSTSRQFVDGPPGPVKKTRSIGSAVDQGNESIVAKTTVTVPNDGGPIEAVSTIETVPYWTRSRRKTGTLQPWNSDSTLNSRQLEPRTETDSVGTPQSNGGMRLHDFVSKTVIKPESCVPCGKRIKFGKLSLKCRDCRVVSHPECRDRCPLPCIPTLIGTPVKIGEGMLADFVSQTSPMIPSIVVHCVNEIEQRGLTETGLYRISGCDRTVKELKEKFLRVKTVPLLSKVDDIHAICSLLKDFLRNLKEPLLTFRLNRAFMEAAEITDEDNSIAAMYQAVGELPQANRDTLAFLMIHLQRVAQSPHTKMDVANLAKVFGPTIVAHAVPNPDPVTMLQDIKRQPKVVERLLSLPLEYWSQFMMVEQENIDPLHVIENSNAFSTPQTPDIKVSLLGPVTTPEHQLLKTPSSSSLSQRVRSTLTKNTPRFGSKSKSATNLGRQGNFFASPMLK
# B2: HsCyk-4-Nt-4D, yeast two-hybrid fusion (domain or fragment, UniProt Q9H0H5 1-288)
# chain: MDTMMLNVRNLFEQLVRRVEILSEGNEVQFIQLAKDFEDFRKKWQRTDHELGKYKDLLMKAETERSALDVKLKHARNQVDVEIKRRQRAEADCEKLERQIQLIREMLMCDTSGSIQLSEEQKSALAFLNRGQPSSSNAGNKRLSTIDEDGSILSDIDFDKTDEDLDWDSDLVKTFKLKKREKRRSTSRQFVDGPPGPVKKTRSIGSAVDQGNESIVAKTTVTVPNDGGPIEAVSTIETVPYWTRSRRKTGTLQPWNSDSTLNSRQLEPRTETDSVGTPQSNGGMRLHD
# B3: HsCyk-4-wt–EGFP (protein, UniProt Q9H0H5 1-632)
# chain: B1 chain
# B4: HsCyk-4-4D–EGFP (protein, UniProt Q9H0H5 1-632)
# chain: B1 chain with S149D, S157D, S164D, S170D
# B5: kinesin-like protein Mklp1, endogenous (protein, UniProt Q02241 1-960)
# chain: MKSARAKTPRKPTVKKGSQTNLKDPVGVYCRVRPLGFPDQECCIEVINNTTVQLHTPEGYRLNRNGDYKETQYSFKQVFGTHTTQKELFDVVANPLVNDLIHGKNGLLFTYGVTGSGKTHTMTGSPGEGGLLPRCLDMIFNSIGSFQAKRYVFKSNDRNSMDIQCEVDALLERQKREAMPNPKTSSSKRQVDPEFADMITVQEFCKAEEVDEDSVYGVFVSYIEIYNNYIYDLLEEVPFDPIKPKPPQSKLLREDKNHNMYVAGCTEVEVKSTEEAFEVFWRGQKKRRIANTHLNRESSRSHSVFNIKLVQAPLDADGDNVLQEKEQITISQLSLVDLAGSERTNRTRAEGNRLREAGNINQSLMTLRTCMDVLRENQMYGTNKMVPYRDSKLTHLFKNYFDGEGKVRMIVCVNPKAEDYEENLQVMRFAEVTQEVEVARPVDKAICGLTPGRRYRNQPRGPVGNEPLVTDVVLQSFPPLPSCEILDINDEQTLPRLIEALEKRHNLRQMMIDEFNKQSNAFKALLQEFDNAVLSKENHMQGKLNEKEKMISGQKLEIERLEKKNKTLEYKIEILEKTTTIYEEDKRNLQQELETQNQKLQRQFSDKRRLEARLQGMVTETTMKWEKECERRVAAKQLEMQNKLWVKDEKLKQLKAIVTEPKTEKPERPSRERDREKVTQRSVSPSPVPLSSNYIAQISNGQQLMSQPQLHRRSNSCSSISVASCISEWEQKIPTYNTPLKVTSIARRRQQEPGQSKTCIVSDRRRGMYWTEGREVVPTFRNEIEIEEDHCGRLLFQPDQNAPPIRLRHRRSRSAGDRWVDHKPASNMQTETVMQPHVPHAITVSVANEKALAKCEKYMLTHQELASDGEIETKLIKGDIYKTRGGGQSVQFTDIETLKQESPNGSRKRRSSTVAPAQPDGAESEWTDVETRCSVAVEMRAGSQLGPGYQHHAQPKRKKP
# B6: HsCyk-4-4A–EGFP (protein, UniProt Q9H0H5 1-632)
# chain: B1 chain with S149A, S157A, S164A, S170A
# What was measured:
# [1] = target: Polo-like kinase 1 (Plk1), endogenous (human (endogenous in HeLa)) (UniProt P53350); experiment: co-IP; 2 µg anti-Plk1 antibody with 1.5–2 mg HeLa lysate, 12–15 h at 4°C, protein A-sepharose; cells blocked with nocodazole and forced out of mitosis with 22.5 µM purvalanol A
# [2] = target: T1, chitin-binding domain (CBD)–Ect2-BRCT (1–421), immobilised; experiment: pull-down; as a1, lysate of HeLa cells in metaphase (MG132 block); only the target purified
# [3] = target: T1, chitin-binding domain (CBD)–Ect2-BRCT (1–421), immobilised; experiment: condition: only cells treated with 5 µg/ml nocodazole (full microtubule destabilization); pull-down; as a1, lysate of cells treated with 5 µg/ml nocodazole (microtubules fully destabilised) and 22.5 µM purvalanol A; only the target purified
# [4] = target: T1, chitin-binding domain (CBD)–Ect2-BRCT (1–421), immobilised; experiment: pull-down; 10 µg CBD–Ect2-BRCT (1–421) or a derivative on chitin beads with about 650 µg HeLa lysate, 12–15 h at 4°C, washed in lysis buffer, Western blot; cells in anaphase or telophase after release from MG132, or blocked with nocodazole (0.04 µg/ml) with or without 22.5 µM purvalanol A for 30 min; only the target purified
# [5] = target: T2, Ect2-BRCT, yeast two-hybrid fusion; experiment: two-hybrid; bait in pGBT9, prey in pGAD424, S. cerevisiae PJ69-4A; serial dilution on medium lacking adenine and histidine
# [6] = target: T1, chitin-binding domain (CBD)–Ect2-BRCT (1–421), immobilised; experiment: pull-down; as a1, lysate of cells depleted of Prc1 by siRNA, nocodazole then 22.5 µM purvalanol A; only the target purified
# [7] = target: T1, chitin-binding domain (CBD)–Ect2-BRCT (1–421), immobilised; experiment: pull-down; as a1, lysate of cells treated with 100 nM BI-2536 (Plk1 inhibitor) after release from MG132 or together with 22.5 µM purvalanol A; only the target purified
Molecule,binding [1],binding [4],other results
"microtubule-associated protein Prc1, endogenous (from UniProt O43663-4 1-606)",binds,,
Myc-Prc1-ST601/2AA (from UniProt O43663-4 1-606),no binding,,
B1,no binding,binds,binding [2]: binds weakly; binding [3]: no binding
B2,,,binding [5]: binds
B3,,binds,
B4,,binds,binding [6]: binds; binding [7]: binds
B5,,binds,
B6,,no binding,
